# Assay results reported in PubChem BioAssay AID624417 (National Center for Advancing Translational Sciences (NCATS), 2012).
# Among all 410,000 compounds or so, about 6,400 (1.6%) were called active. The shares of active, inactive and inconclusive entries below differ from those in the screen. Calls come from the whole dose curve; as a rule, active = well fitted inhibition curve with a large enough effect; inconclusive = small, poorly fitted or top-dose-only effect; inactive = no such curve, though single readings can be large or run the other way. No potency is given beside an inconclusive call; the fits are too rough.
# Biological target: Glucagon-like peptide 1 receptor (Homo sapiens) (UniProt P43220)
# Assay: qHTS of GLP-1 Receptor Inverse Agonists (Inhibition Mode); note: nearly all actives have a fitted effect of over 55% in size
# Conditions: HEK293 GLP-1R CRE-luciferase, luminescence, 24 h, GLP-1R form is constitutively active; series mostly up to 38.3 µM
# Procedure, shortened: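 qHTS in 1536-well format: reporter HEK293 cells expressing constitutive GLP-1R activity in DMEM + 10% Nu serum, 24 hr with compounds at 37 deg C, luminescence read after 12 min with detection reagent.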
# Potency is the fitted concentration of half-maximal effect; tags give direction and shape of the fitted curve.
# UniProt P43220, sequence (P43220 whole entry, looked up): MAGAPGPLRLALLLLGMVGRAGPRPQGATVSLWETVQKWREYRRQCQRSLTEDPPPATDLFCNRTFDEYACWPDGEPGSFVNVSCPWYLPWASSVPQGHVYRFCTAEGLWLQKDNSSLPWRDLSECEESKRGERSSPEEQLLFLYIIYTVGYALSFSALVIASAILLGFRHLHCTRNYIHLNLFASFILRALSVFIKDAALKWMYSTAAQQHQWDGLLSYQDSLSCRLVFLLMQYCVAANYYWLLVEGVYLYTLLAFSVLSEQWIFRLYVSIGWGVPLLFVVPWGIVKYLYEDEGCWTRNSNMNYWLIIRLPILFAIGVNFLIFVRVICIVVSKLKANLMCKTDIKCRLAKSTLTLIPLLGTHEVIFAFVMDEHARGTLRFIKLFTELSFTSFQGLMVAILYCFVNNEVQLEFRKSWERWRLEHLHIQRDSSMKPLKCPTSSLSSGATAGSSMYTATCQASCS
row,Structure (SMILES),Potency
1,O=[N+]([O-])c1cc2ncccc2c2ncccc12,active: 3.16 µM
2,CCCCNC(=O)c1[nH]c(C2CCNCC2)nc1-c1cccc(C(F)(F)F)c1,"inconclusive [inhibitor, single point]"
3,CCc1cccc(CC)c1NC(=S)NCCc1ccc(O)c(O)c1,"inconclusive [inhibitor, partial curve, poor fit]"
4,C/C(N)=C(/C#N)C(=O)CSc1nc(-c2ccccc2)c(-c2ccccc2)o1,"inconclusive [inhibitor, single point]"
5,CCCCN(C)C1=CC2=CC(=C(C#N)C#N)CCC2CC1 (centres undefined),inactive
6,Cc1ccc(NC(=O)c2cnc(N3CCCCC3)c3ccccc23)cc1Cl,"inconclusive [inhibitor, single point]"
7,CCN(CC)c1ccc(/C=N/OC(C)C(=O)Nc2ccc(C)cc2)cc1 (centres undefined),"inconclusive [inhibitor, partial curve, poor fit]"
8,OC(c1ccc(F)cc1)c1nc(/C=C/c2ccccc2)cs1 (centres undefined),"inconclusive [inhibitor, single point]"
9,COc1cc(C(=O)C(=O)N2CCN(c3ccccc3)CC2)cc(OC)c1OC,"inconclusive [inhibitor, full curve, poor fit]"
10,Cc1ccc(-c2nnn(CC(=O)N(CC3CCCO3)C(C(=O)NCC3CCCO3)c3ccc(F)cc3)n2)o1 (centres undefined),"inconclusive [inhibitor, single point]"
11,CCCC(=O)C1=C(c2ccc(C)cc2)N(C(=O)CCC)n2cnnc2S1,"inconclusive [inhibitor, single point]"
12,COc1cccc(-c2nc3cc(C)ccc3o2)c1,"inconclusive [inhibitor, single point]"
13,CN(CC(=O)Nc1cccc(F)c1)C(=O)COc1ccc2c(c1)CCC2,"inconclusive [inhibitor, single point]"
14,CC(C)C(=O)Nc1ccc(NC(=S)NC(=O)c2ccccc2F)cc1,"inconclusive [inhibitor, partial curve, poor fit]"
15,Cc1cc(N2CCC(C)CC2)nc2ccc(N3C(=O)CCC3=O)cc12,inactive
16,Cc1ccccc1NC(=O)CN1C(=O)NC(C)(c2ccc3c(c2)OCO3)C1=O (centres undefined),inactive
17,Fc1ccc(OCc2nc(-c3ccc(Br)o3)no2)c(F)c1,"inconclusive [inhibitor, single point]"
18,O=C(O)c1ccc(N2CCc3ccccc32)c([N+](=O)[O-])c1,inactive
19,Cc1cccc(-c2oc3ccccc3c2C#CCCCCO)c1,"inconclusive [inhibitor, partial curve, poor fit]"
20,CCOC(=O)C1CCN(S(=O)(=O)CCNC(=O)c2ccc3c(c2)OCO3)CC1,inactive
21,S=C(/N=c1/sccn1Cc1ccccc1)NC1CC1,"inconclusive [inhibitor, partial curve, poor fit]"
22,CC(c1ccc(F)cc1)n1cc(C(=O)NCCN(C)C)nn1 (centres undefined),"inconclusive [inhibitor, partial curve, poor fit]"

row,Structure (SMILES),Potency
1,Cc1ccc(S(=O)(=O)N2CCN(C(=O)CN3C(=O)NC4(CCCC4)C3=O)CC2)c(C)c1,"inconclusive [inhibitor, partial curve, poor fit]"
2,CCOc1cccc(CNCCO)c1OCc1ccc(Cl)cc1,"inconclusive [inhibitor, single point]"
3,Cc1oc(-c2ccc(C(=O)Nc3cccc(C(F)(F)F)c3)cc2)nc1CSc1ccccc1,active: 2.24 µM
4,Cc1ccc(NC(=O)CCC(=O)NNC(=O)NC23CC4CC(CC(C4)C2)C3)cc1C,"inconclusive [inhibitor, partial curve, poor fit]"
5,COc1ccccc1CN(C)C(=O)c1sccc1-c1ccccc1,"inconclusive [inhibitor, single point]"
6,CCOC(=O)C1(Cc2ccccc2C(F)(F)F)CCN(CCCn2cccn2)CC1,"inconclusive [inhibitor, single point]"
7,O=C(/C=C/c1ccccc1)CC(O)(c1ccccc1)C(F)(F)C(F)F (centres undefined),"inconclusive [inhibitor, single point]"
8,C=CCNC(=S)N1CCc2c([nH]c3ccccc23)C1C (centres undefined),"inconclusive [inhibitor, single point]"
9,O=C(CN1CCN(C(=O)C2CCN(C(=O)/C=C/c3ccccc3)CC2)CC1)Nc1ccc(F)cc1,inactive
10,NC(c1ccccc1)c1csc(Nc2cc(Oc3ccccc3)ncn2)n1 (centres undefined),inactive
11,COc1ccc(Nc2nc(Nc3ccc(OC)cc3)nc(-n3[nH]c(=O)c(C)c3C)n2)cc1,"inconclusive [inhibitor, partial curve, poor fit]"
12,CCOC(=O)C1CCN(Cc2cn(C)nc2-c2ccc(Oc3ccccc3)cc2)CC1,"inconclusive [inhibitor, single point]"
13,CC(C)(C)NC(=O)CSCc1c(Cl)cccc1Cl,"inconclusive [inhibitor, partial curve, poor fit]"
14,COc1cccc(O)c1CN1CCC(C(=O)Nc2ccc(Oc3cccnc3)cc2)CC1,"inconclusive [inhibitor, partial curve, poor fit]"
15,COc1ccccc1/C=N\Nc1ccccc1[N+](=O)[O-],inactive
16,Cc1c(C)n(Cc2ccccc2)c2ccc(C(=O)NCc3ccc(OC(C)C)cc3)cc12,"inconclusive [inhibitor, partial curve, poor fit]"
17,COCCCNC(=S)NNC(=O)c1ccc2c(c1)OCO2,inactive
18,O=S(=O)(NCc1csc(-c2cccs2)n1)c1cccs1,"inconclusive [inhibitor, partial curve, poor fit]"
19,COc1ccc(NC(=O)c2cc(-c3ccco3)nc3ccccc23)cc1,"inconclusive [inhibitor, partial curve, poor fit]"
20,COC(=O)C(Cc1csc2ccc(Cl)cc12)NC(=O)c1ccc(Cl)cc1 (centres undefined),"inconclusive [inhibitor, partial curve, poor fit]"
21,Cc1ccc(C)c(OCC(=O)Nc2ccccc2N2CCCC2)c1,"inconclusive [inhibitor, single point]"
22,CCC/C=C(\CCC)C(NC(=O)c1ccc(C(=O)OC)cc1)c1ccc(C(=O)OC)cc1 (centres undefined),"inconclusive [inhibitor, single point]"

row,Structure (SMILES),Potency
1,Cc1cccc(NC(=O)c2cc(-c3ccccn3)nc3ccccc23)c1C,"inconclusive [inhibitor, partial curve, poor fit]"
2,COc1cccc(SCC2(O)CCN(C(=O)c3ccc(Cl)cc3)CC2)c1,"inconclusive [inhibitor, single point]"
3,Cc1ccc(OCCN2CCCC2)cc1,inactive
4,CSc1ccccc1NC(=O)CSCc1ccc(Br)cc1,"inconclusive [inhibitor, partial curve, poor fit]"
5,S=C(NCCCN1CCOCC1)NN=C1c2ccccc2-c2ccccc21,"inconclusive [inhibitor, full curve, poor fit]"
6,O=S(=O)(c1ccc(Br)cc1)N1CCCN(Cc2ccccc2F)CC1,"inconclusive [inhibitor, partial curve, poor fit]"
7,CC(CCN1CCN(c2ccc(F)cc2)CC1)c1ccccc1 (centres undefined),"inconclusive [inhibitor, partial curve, poor fit]"
8,O=C(Nc1ccccc1)c1ccc(Nc2c([N+](=O)[O-])cc([N+](=O)[O-])c3ccccc23)cc1,inactive
9,CC1(C)Cc2nc3sc4c(SCC(=O)NCc5ccco5)ncnc4c3cc2CO1,"inconclusive [inhibitor, full curve]"
10,O=C(CN1CCN(S(=O)(=O)N2CCCCCC2)CC1)Nc1ccc(F)cc1,"inconclusive [inhibitor, partial curve, poor fit]"
11,COc1cccc(C2CC(c3c(-c4ccccc4)c4cc(Cl)ccc4[nH]c3=O)=NN2S(C)(=O)=O)c1OC (centres undefined),"inconclusive [inhibitor, partial curve, poor fit]"
12,O=C(CSc1nc(=O)n(Cc2ccco2)c2c1CCC2)NCc1ccc(Cl)cc1,inactive
13,CCCCn1c2c(c(=N)c3c1CCC3)CCC2,"inconclusive [inhibitor, full curve, poor fit]"
14,O=C(CSc1nc2ccccc2c2c1CCCC2)N1CCOCC1,"inconclusive [inhibitor, partial curve, poor fit]"
15,CCn1c(SC(C)C)nnc1-c1cc(-c2ccccc2)sc1N,"inconclusive [inhibitor, single point]"
16,O=C(Nc1ccccc1Cl)c1cc(C2CCCN(C(=O)c3cccc(O)c3)C2)on1 (centres undefined),"inconclusive [inhibitor, partial curve, poor fit]"
17,CC(C(=O)NCCCn1ccnc1)(c1ccccc1)c1ccccc1,"inconclusive [inhibitor, single point]"
18,Cc1ccc(NC(=O)CNCCCN2CCOCC2)cc1S(=O)(=O)N1CCCCC1,"inconclusive [inhibitor, partial curve, poor fit]"
19,Cc1cc(C)cc(NC(=O)CCn2c(=O)c3cccn3c3ccccc32)c1,"inconclusive [inhibitor, full curve]"
20,CSc1ccccc1NC(=O)CN(C)C(C)C(=O)NC(=O)NC1CCCCC1 (centres undefined),"inconclusive [inhibitor, single point]"
